Where “and” joins values, the source holds several entries; their conditions need not be identical. Equal entries are not always repeated. The list shows a part of the results. Potency and affinity values are given separately.

This experiment deals with Acinetobacter baumannii. Conditions: Concentration 32 ug.mL-1, ASSAY_TEST Inhibition of Bacterial Growth, detection method Absorption (OD600), MEDIA CAMHB, plate type 384well, NBS, CORNING #3640, time 18 hr.

For the compound `Cl.ClCCCCN1CCCCC1`, the Inhibition was found to be 0.01%.

For `Cc1ccc(C2c3c(nc4c(c3N)CCCC4)Oc3ccc4ccccc4c32)cc1` (stereo not drawn), the Inhibition is on record as -14.46%.

Take `Cc1nc(NCc2ccccc2)c2cnn(-c3ccccc3)c2n1`: the Inhibition is listed as -6.62%.

As for `CCOC(=O)C1=C(C)OC(N)=C(C#N)C1c1ccc(F)cc1` (stereo not drawn), the Inhibition worked out at 10.38%.

`Cl.ClCCCCCN1CCCCC1`: the Inhibition is listed as -5.71%.

Turning to `N#CC1=C(N)NC(=O)CC1c1ccccc1` (stereo not drawn), the Inhibition is -9.54%.

With `C#CCN(C)Cc1cc2cc(OCCCC3CCN(Cc4ccc(OC)c5ncccc45)CC3)ccc2n1C`, the Inhibition worked out at 2.88%.

Turning to `Cc1ccc(CNNC(=O)c2c[nH]c3ccccc23)cc1`, the Inhibition is listed as -10.96%.

As to `CC#CCN(Cc1ccccc1)c1nc(N)c(C#N)cc1C#N`, the Inhibition was 1.09%.

In the case of `C=C1CN(C)c2ncc(C#N)c(=N)n21`, the Inhibition was 0.64%.

For `C=C1CN(C)c2c(C#N)c(-c3ccccc3)c(C#N)c(=N)n21`, the Inhibition is recorded as -1.06%.

As to `Nc1c2c(nc3ccc([N+](=O)[O-])cc13)CCCC2`, the Inhibition came to 1.74%.

As for `Cn1c(CNNC(=O)c2ccco2)cc2ccccc21`, the Inhibition came out at 12.28%.

In the case of `O=C1OC(c2ccccc2)=NC1=Cc1ccccc1Cl`, the Inhibition was determined as 1.28%.

As to `COc1ccccc1C1c2ccc3ccccc3c2Oc2nc3c(c(N)c21)CCCC3` (stereo not drawn), the Inhibition is -4.98%.

In the case of `C#CCNc1nc(NCCC2CCN(Cc3ccccc3)CC2)c(C#N)cc1C#N`, the Inhibition came to 7.59%.

Turning to `CN1C/C(=C\Cl)n2c1c(C#N)c(-c1ccccc1)c(C#N)c2=O`, the Inhibition was found to be 1.38%.

For `CC#CCN(Cc1ccccc1)c1nc(N)c(C#N)c(-c2ccccc2)c1C#N`, the Inhibition came to 5.1%.

As to `N#Cc1c(-c2cccc([N+](=O)[O-])c2)c2ccc3ccccc3c2oc1=O`, the Inhibition (32 ug/mL) is 3.35% and 1.61% and 0.73%.

In the case of `CN(C)c1nc(N)c(C#N)c(-c2ccccc2)c1C#N`, the Inhibition is reported as 2.72%.

`N#Cc1c(N)nc(NC2CCN(Cc3ccccc3)CC2)c(C#N)c1-c1ccccc1`: the Inhibition amounted to 11.43%.

For `CCOC(=O)/C(C#N)=C\c1ccc(Cl)cc1`, the Inhibition amounted to 7.09%.

On to `CN(N=O)C(=O)NC1(C(=O)O)CC1c1ccccc1` (stereo not drawn), for which the Inhibition is -1.93%.

Consider `CSC1=NC(=Cc2cn(C)c3ccccc23)C(=O)N1C`, for which the Inhibition is recorded as -0.26%.

Consider `Cl.N#Cc1c(Cl)nc(N)nc1NCCO`, for which the Inhibition worked out at 7.93%.

As to `CS(=O)(=O)O[C@H]1CC[C@H](OS(C)(=O)=O)CC1`, the Inhibition is 15.97%.

Take `N#CC1=C(Cl)Oc2c(ccc3ccccc23)C1c1cccc([N+](=O)[O-])c1` (stereo not drawn): the Inhibition is reported as -8.51%.

For the compound `NNC(=O)c1cc2ccccc2n1Cc1ccccc1`, the Inhibition was -7.92%.

On to `COC(=O)C1CCN(Cc2ccccc2)CC1`, for which the Inhibition is recorded as -1.76%.

Consider `CCCCNNC(=O)c1cc2ccccc2[nH]1`, for which the Inhibition came to 4.18%.

In the case of `COc1cccc(C2c3c(nc4c(c3N)CCCC4)Oc3ccc4ccccc4c32)c1` (stereo not drawn), the Inhibition is -9.55%.

For the compound `COc1ccc2cc(C3C4=C(CC(C)(C)CC4=O)Oc4nc5c(c(N)c43)CCC5)c(Cl)nc2c1` (stereo not drawn), the Inhibition was 6.3%.

With `CCOC(=O)c1c[nH]c2ccc(OC)cc12`, the Inhibition worked out at 5.01%.

`Cc1nn(-c2ccccc2)c2ncnc(NCc3ccccc3)c12`: the Inhibition stood at 3%.

In the case of `CCOC(=O)C1=C(C)OC(N)=C(C#N)C1c1ccco1` (stereo not drawn), the Inhibition was found to be 7.08%.

With `C/C(Cc1ccccc1)=N/NC(=O)c1c[nH]c2ccc(O)cc12`, the Inhibition is -4.87%.

For the compound `COc1cc(C=NNC(=O)Cc2c[nH]c3ccccc23)ccc1O`, the Inhibition was -1.21%.

With `O=C(Cc1cccc2ccccc12)N/N=C/c1c[nH]c2ccccc12`, the Inhibition was 3.78%.

`CC(=O)Oc1ccc(C=C2N=C(c3ccccc3)OC2=O)c(OC(C)=O)c1`: the Inhibition came to 7.89%.

Take `O=C1OC(c2ccc([N+](=O)[O-])cc2)=NC1=Cc1ccccc1`: the Inhibition is reported as -1.38%.

On to `CC1CC(=O)Nc2c1c(Cl)nc1nc3c(c(N)c21)CCCC3` (stereo not drawn), for which the Inhibition is listed as 2.21%.

Consider `O=C(N/N=C/c1cccc(Cl)c1)c1cc2ccccc2[nH]1`, for which the Inhibition is given as -1.48%.

Consider `CC(=O)Nc1n[nH]c2nc(N)c(C#N)c(-c3ccccc3)c12`, for which the Inhibition was 5.41%.

As to `COC(=O)C(=Cc1ccccc1)NC(=O)c1ccccc1`, the Inhibition is recorded as -5.12%.

In the case of `Cn1ccnc1C1c2c(nc3c(c2N)CCC3)Oc2ccc3ccccc3c21` (stereo not drawn), the Inhibition is -1.81%.

With `CN(C)c1ccc(C(=NNC(=O)c2cc3ccccc3[nH]2)c2ccc(N(C)C)cc2)cc1`, the Inhibition is listed as -10.66%.

For the compound `COC1=C(C#N)C(c2ccccc2)C(C=O)=C(Cl)N1` (stereo not drawn), the Inhibition was 8.41%.

Regarding `Cl.ClCCCN1CCCCC1`, the Inhibition turned out to be 0.47%.

On to `N#Cc1c(NC2CCC(Cc3ccccc3)CC2)nc(NC2CCN(Cc3ccccc3)CC2)c(C#N)c1-c1ccccc1` (stereo not drawn), for which the Inhibition was 10.4%.

With `C#CCNc1ccc(Cl)nn1`, the Inhibition was 13.58%.

Regarding `Cc1ccc(C2c3c(Cl)nnnc3Oc3ccc4ccccc4c32)cc1` (stereo not drawn), the Inhibition is -1.86%.

Regarding `NC1(C(=O)O)CC1c1ccc2c(c1)OCO2` (stereo not drawn), the Inhibition is given as -9.01%.

For `Cc1cnc2ccc(Cl)cn12`, the Inhibition is listed as 1.77%.

As for `CCOc1nc(N)c(C#N)cc1C#N.Cl`, the Inhibition amounted to 5.7%.

With `C#CCN(C)c1nc(N)c(C#N)cc1C#N`, the Inhibition (32 ug/mL) is 12.81% and -3.64%.

With `Cl.Nc1c2c(nc3c1C(c1ccccc1)c1ccc4ccccc4c1O3)CCCC2` (stereo not drawn), the Inhibition was -26.54%.

In the case of `O=C(NNCCc1ccccc1)c1cc2ccccc2[nH]1`, the Inhibition is given as -8.77%.

`C#CCN(C)Cc1cc2cc(OCCCC3CCN(C(=O)OC(C)(C)C)CC3)ccc2n1C`: the Inhibition was 11.4%.

For the compound `COc1ccc(C2c3c(nc4c(c3N)CCCC4)Oc3ccc4ccccc4c32)cc1OC` (stereo not drawn), the Inhibition was -3.51%.

Turning to `C#CCN(C)Cc1cc2cc(OCCCCC3CCN(Cc4ccccc4)CC3)ccc2n1C`, the Inhibition stood at 6.24%.

For the compound `Cn1cc(/C=C2\NC(=S)NC2=O)c2ccccc21`, the Inhibition is -6.57%.

On to `COc1ccc(C2C(C#N)=C(Cl)Oc3c2ccc2ccccc32)cc1OC` (stereo not drawn), for which the Inhibition is recorded as -5.78%.

`O=Cc1c[nH]c2ccccc12` [3-FORMYLINDOLE]: the Inhibition is given as 13.93%.

`CCOC(=O)c1c(C)nc(N)c(C#N)c1-c1cccs1`: the Inhibition was determined as 7.31%.

Take `N#CC1=C(N)Oc2ccc3ccccc3c2C1c1ccc(O)cc1` (stereo not drawn): the Inhibition stood at 8.77%.

Take `c1ccc(COc2ccc3[nH]ccc3c2)cc1`: the Inhibition is given as -1.67%.

`CNC(=O)NC1(C(=O)O)CC1c1ccccc1` (stereo not drawn): the Inhibition was -11.74%.

For the compound `C=C1CN(C)c2c(C#N)cc(C#N)c(=S)n21`, the Inhibition amounted to 7.47%.

Source of the values: ChEMBL document CHEMBL4513135, “CO-ADD screening of IQOG CSIS (Spain) compounds”.
